Reference: PubChem BioAssay (NCI)
Where “and” joins values, the source holds several entries; their conditions need not be identical. Equal entries are not always repeated.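 These data come from cells grown in 96-well plates and exposed to compound for 48 hours at five concentrations. GI50 is the concentration that inhibits growth by half. TGI: concentration producing complete growth inhibition.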

Tested on: NCI-H322M lung
Experiment: inhibition of tumour cell growth, NCI panel, 48 h

Structure (SMILES) | GI50 | TGI
Nc1c2ccccc2nc2ccccc12 | 2.62 µM and 3.86 µM | 6.89 µM and 30.4 µM
O=C1C(CN2CCCC2)CCC1CN1CCCC1 (stereo not drawn) |  | > 100 µM
N#CSc1c[nH]c2cccc(/C=C/C(=O)/C=C(O)/C=C/c3cccc4[nH]cc(SC#N)c34)c12 | 0.981 µM | 4.22 µM
O=C1/C(=C/c2ccc(Cl)cc2)NC(=S)N1CN1CCCCC1 |  | > 100 µM
Cc1cc(Br)ccc1N=NC1C(=O)ON=C1c1ccccc1 (stereo not drawn) |  | > 100 µM
CC(=O)[O-].O=C([CH-]C(=O)c1ccccc1)c1ccccc1.O=C([CH-]C(=O)c1ccccc1)c1ccccc1.[Dy+3] | 12.3 µM | 58.5 µM
Cc1ccc(CNc2ccc(Cl)cc2NCc2ccc(C)c(O)c2)cc1O | 7.85 µM | 15.3 µM
CCC[CH2][Sn]1([CH2]CCC)[O]C(=O)c2cccnc2[S]1 | 14.2 µM | 27.5 µM
CCOC(=O)c1nc2ccccc2nc1Oc1ccc(F)cc1 |  | > 100 µM
O=c1ccn([C@@H]2C[C@H](CO)CS(=O)C2)c(=O)[nH]1 (stereo partly drawn) |  | > 100 µM
N#CC1(C2CC(=O)N(c3ccccc3)C2=O)CCCCC1=O (stereo not drawn) |  | > 100 µM
COC(=O)C(Cc1ccc2c(c1)OCO2)(NC(=O)c1ccccc1)P(=O)(OC)OC (stereo not drawn) |  | > 100 µM
O=c1c2cc(F)ccc2sc2c(NCCCNCCO)nc3ccc(F)cc3c12 | 1.66 µM | 3.16 µM
CCc1cccc(CC)c1NC1=CC(=O)C(=O)c2ccccc21 |  | 41.8 µM
CCN(CC)CCCC(C)Nc1ccnc2cc(OC)ccc12 (stereo not drawn) | 29.3 µM | 84.6 µM
CCOC(=O)c1sc(N)nc1N1CCCC1 |  | > 100 µM
CSC(SC)=C1Sc2cccc(Cl)c2S1 |  | > 100 µM
CC1=C(C(N)=O)C(c2ccncc2)C(C#N)C(=O)N1 (stereo not drawn) |  | > 100 µM
CCO/C=N\C1=C(C#N)SC2=N/C(=C\c3ccco3)C(=O)N21 |  | > 100 µM
O=C(NNC(=O)c1cc2ccccc2[nH]1)c1cc2ccccc2[nH]1 |  | > 100 µM
CC1(C)OC(COP2OCCO2)[C@H](COP2OCCO2)O1 (stereo partly drawn) |  | > 100 µM
CS(=O)c1cc(=O)c2ccccc2s1 (stereo not drawn) |  | 39 µM
C=C(C)[C@@H]1CC[C@]2(C(=O)OC)CC[C@]3(C)[C@H](CC[C@@H]4[C@@]5(C)CC/C(=N\OCCC(=NCCC#N)NOCCC#N)C(C)(C)[C@@H]5CC[C@]43C)[C@@H]12 | > 50 µM | > 50 µM
Nc1nc(N)c2nc(CNc3ccc(C(=O)NC(CCC(=O)O)C(=O)O)cc3)cnc2n1 (stereo not drawn) |  | > 100 µM
COC(=O)c1c(O)ccc2c1c1c(n2CCc2ccccc2)C(=O)c2ccccc2C1 |  | > 100 µM

Structure (SMILES) | GI50 | TGI
CCOP(=O)(OCC)/C(F)=C/c1ccc(F)cc1 |  | > 100 µM
CC(=O)OCC1OC(NC(=S)Nn2c(-c3ccccc3)nc3ccccc3c2=O)C(OC(C)=O)C(OC(C)=O)C1OC(C)=O (stereo not drawn) |  | > 100 µM
O=c1[nH]nc(Nc2ccc(Cl)cc2)c2nnn(-c3ccc([N+](=O)[O-])cc3)c12 |  | > 100 µM
O[C@@H]1CCCCN1Cc1cc2cc3c(cc2c2cc(OCc4ccccc4)ccc12)OCO3 | 2.11 µM | 4.4 µM
C[C@H](O)CCC(=O)c1ccoc1 |  | > 100 µM
Cc1cc2c(=O)cc(-c3ccncc3)oc2c(C(N)=O)c1C |  | > 100 µM
CC(C(=O)NCNC(=O)c1ccccc1)C(=O)NCc1ccccc1 (stereo not drawn) |  | > 100 µM
CC[C@H]1CNC(=O)CC1CC(=O)OC (stereo partly drawn) |  | > 100 µM
C[C@@H](NC(=O)Nc1cccc(C(=O)Nc2cc(C(C)(C)C)ccc2C(=O)O)n1)c1ccccc1 |  | > 100 µM
Cc1cccc2c(=O)c3cccc(CC(=O)O)c3oc12 |  | > 100 µM
O=P(c1ccccc1)(c1ccccc1)C1CC=C2CCCCCC2C1 (stereo not drawn) |  | 73.6 µM
COc1ccc(CC(COS(=O)(=O)c2ccc(C)cc2)NS(=O)(=O)c2ccc(C)cc2)cc1 (stereo not drawn) |  | 46.2 µM
N#CC(NNC(=O)c1ccccc1O)c1ccccc1O (stereo not drawn) |  | > 100 µM
COc1cc(Nc2nc(NS(=O)(=O)c3cc(C)c(Cl)cc3S)n[nH]2)cc(OC)c1OC |  | > 100 µM
Cc1nnc(NS(=O)(=O)c2ccc(N=Nc3c(O)c(C(=O)O)cc4ccccc34)cc2)s1 |  | > 100 µM
CC(C)CCNC(=O)c1ccc(CNC(=O)/C=C/c2ccc3c(c2)-c2ccccc2C3)cc1 |  | > 100 µM
N#CN1CCC2CC(=O)CCC2C1 (stereo not drawn) |  | > 100 µM
CCc1c(N=[N+]=[N-])c2ccccc2oc1=O |  | > 100 µM
CCOc1ccc(/C=C/C(=O)c2sc(NNC(C)=O)nc2C)cc1 |  | > 100 µM
Cc1n[nH]c(C)c1-c1c(C)n[nH]c1C | 2.94 µM | > 28.7 µM
COc1cc(C(=O)N[C@@H]2CCCN(C)C2)ccc1Nc1ncc2c(n1)N(C1CCCC1)CC(C)(C)C(=O)N2C | 9.41 µM | 22.9 µM
COc1ccc2c(c1)SC1=Nc3sc4cc(OC)ccc4[n+]3CN12 |  | > 100 µM
CC1CC(=O)C(CC(=O)O)[C@H]1C(C(=O)C(=O)Nc1cc(Cl)ccc1Cl)[N+](=O)[O-] (stereo partly drawn) |  | > 100 µM
COc1ccc2c(c1)c(-c1nc(-c3cn(C)c4ncccc34)cs1)cn2CCCCN1CCCCC1 | 1.65 µM | 3.06 µM
CC(C)OP(=O)(OC(C)C)C(=Nc1ccc(N=C(NNc2ccc([N+](=O)[O-])cc2)P(=O)(OC(C)C)OC(C)C)cc1)NNc1ccc([N+](=O)[O-])cc1 |  | > 100 µM

Structure (SMILES) | GI50 | TGI
CCN(CC)CCN1C(=O)c2cccc3cc(N)cc(c23)C1=O |  | 25.8 µM
CSc1cnc2ccccc2c1Sc1cn(C)c2ccccc2c1=O |  | 71 µM
O=[N+]([O-])C1=Cc2c(O)ccc(O)c2C2c3ccccc3NC12 (stereo not drawn) |  | 39.5 µM
CC1(C)N=C(N)N=C(N)N1c1cccc(CC(=O)Nc2ccccc2)c1 | 12.9 µM | > 100 µM
Cc1[nH]n(C(=O)Cc2ccccc2)c(=O)c1/C=C1\C(=O)C=Cc2ccccc21 |  | > 100 µM
C[C@H]1CC(=O)C[C@@H]2CC[C@@H]3[C@H](CC[C@]4(C)C(OC(=O)c5cccc6c(=O)c7ccccc7[nH]c56)CC[C@@H]34)[C@]21C (stereo partly drawn) |  | > 100 µM
C/C(=N\NC(N)=S)c1ccc(Oc2ccccc2)cc1 |  | 33.4 µM
CCCCCCCCCCCCCCCCCCCCCCC(=O)N[C@H]1CCc2cc(OC)c(OC)c(OC)c2-c2ccc(SC)c(=O)cc21 |  | > 100 µM
COc1ccc(N(c2ccc(C#N)cc2)c2ccc(C#N)cc2)cc1 |  | > 100 µM
FC(F)(F)c1ccc(-c2cnc(-c3nn[nH]n3)nc2NC2CCCCCC2)cc1 | > 10 µM | > 10 µM
O=C(/C=C/c1c[nH]c2ccccc12)c1ccccc1O |  | 23.6 µM
C/C(=C/C(=O)N(C)c1ccccc1Cl)O[Si](C(C)C)(C(C)C)C(C)C |  | 61.4 µM
COC(=O)N1C=Cc2c(c(C)c3c([nH]c4ccccc43)c2C)C1C (stereo not drawn) |  | 33.8 µM
CC1(C)CCC(c2ccc(Cl)cc2)=C(CN2CCN(c3ccc(C(=O)NS(=O)(=O)c4ccc(N[C@H](CCN5CCOCC5)CSc5ccccc5)c(S(=O)(=O)C(F)(F)F)c4)cc3)CC2)C1 | 1.85 µM | 4.45 µM
O=C(c1ccccc1)N1CCc2c([nH]c3ccccc23)C1 |  | > 100 µM
CCCCCCCCCCCCNC(=O)N[C@H](C(=O)N[C@H]1/C=C/OCCNC(=O)/C=C/[C@H](C(C)C)NC1=O)C(C)C | > 100 µM | > 100 µM
Cc1nn(-c2ccccc2)c2c1[C@@H](C)[C@H]1CC3(CC4(C)C[C@@H]3C1(C)c1c(C)nn(-c3ccccc3)c1N4C)N2C (stereo partly drawn) | > 100 µM | > 100 µM
COc1cc(CC2c3cc(OC)c(OC)cc3CCN2C)c(C(=O)O)cc1OC (stereo not drawn) |  | > 100 µM
CC(=O)Nc1ccc(S(=O)(=O)N2C(=O)CCC2C(=O)Nc2ccccc2)cc1 (stereo not drawn) | 3.39 µM | 26.1 µM
COC(=O)[C@@H](N1C(=O)c2ccccc2C1=O)C1(C)CC(Cl)=NO1 (stereo partly drawn) |  | > 100 µM
COc1nc2c(c(=O)[nH]1)N=C(c1ccc([N+](=O)[O-])cc1)CC(c1ccccc1)N2 (stereo not drawn) |  | > 100 µM
O=C1C/C(=C\c2ccccc2)C(=O)c2ccccc2N1 |  | 30 µM
COc1ccc(Cc2nc3cc(C(F)(F)F)ccc3n2C[C@@H]2CCCN3CCCCC23)cc1 (stereo partly drawn) |  | 27.6 µM
CC/C(=C\c1ccc(N(C)C)cc1)c1ccncc1 | 43 µM | > 100 µM
CCN(CC)c1ccc(C=C2C(=O)NC(=S)NC2=O)cc1 | 6.17 µM | 16.4 µM

Structure (SMILES) | GI50 | TGI
COC(=O)c1c(C(=O)OC)c2ccccn2c1-c1cc(C)cc2c1C(=O)C=CC2=O |  | 20.7 µM
C(#C[C@@]12CCC[C@@H]1NCO2)c1ccc2c(c1)OCO2 |  | > 100 µM
CCOC(=O)c1cn2c(n1)sc1cc([N+](=O)[O-])ccc12 |  | > 100 µM
COC(=O)[C@]1(CCC(C)=O)C(=O)C=CN([C@H](C)c2ccccc2)[C@@H]1Cc1ccc(OC)c(OCc2ccccc2)c1I |  | 58.5 µM
COc1cc(F)c(F)c(F)c1C(=O)c1cnc(NC2CCN(S(C)(=O)=O)CC2)nc1N | 2.2 µM | 21.1 µM
CN1CC[C@H](N(C)C(=O)N2CC(c3cc(F)ccc3F)=C[C@@]2(CO)c2ccccc2)[C@H](F)C1 | 0.00653 µM | > 100 µM
O=c1[nH]c2c(ccc3cnccc32)c2c1CCC2 | 0.322 µM | 16.3 µM
NC(C(=O)O)C(O)c1cnc[nH]1 (stereo not drawn) |  | > 100 µM
CC1(C)OC2OC(/C=C/[N+](=O)[O-])C3OC(C)(C)OC3C2O1 (stereo not drawn) |  | 31.7 µM
COc1cnc2c(c1)C(=O)c1c-2n(CCCN2CCNCC2)c(=O)c2cc(F)ccc12 | 0.963 µM | 4.78 µM
OC1(c2ccccc2)c2ccccc2N(c2ccccc2)c2ccc(Cl)cc21 (stereo not drawn) | 0.392 µM | 1.46 µM
CCCCP1(=O)C=CC(Cl)=C(C)C1 (stereo not drawn) |  | > 100 µM
COc1cccc(-c2cc(-c3ccc(Nc4nc(Nc5ccc(Cl)cc5)nc(Nc5ccc(Cl)cc5)n4)cc3)nc(N)c2C#N)c1 | 57.5 µM | > 100 µM
N=C(N)c1ccc(-c2ccc(-c3cccs3)s2)cc1F | 0.735 µM | 2.29 µM
O=C1Nc2ccc(I)cc2/C1=C/c1cc(Br)c(O)c(Br)c1 | > 21.7 µM and 25.2 µM | > 72.9 µM
CCc1ccc2cc3c(ccc4ccccc43)c3c2c1CC3 | > 100 µM | > 100 µM
Cc1ccccc1C1N=C2Oc3ccccc3C=C2C(=O)N1 (stereo not drawn) | 10.1 µM | > 100 µM
O=C1C(=C2C(=O)c3ccccc3[N+]2=O)N([O-])c2ccccc21 |  | > 100 µM
COC(=O)[C@@H](C)C[C@H](Cc1ccccc1)NC(=O)c1nc([C@@H](C[C@H](C(C)C)N(C)C(=O)[C@@H](NC(=O)[C@H]2CC(=O)CCN2C)C(C)C)OC(C)=O)sc1C(C)C | 0.623 µM | > 16.7 µM
N#Cc1nc(CCC(C(=O)O)N2C(=O)c3ccccc3C2=O)oc1N (stereo not drawn) |  | > 100 µM
COc1ccc(C2OC2C(=O)C23CC4CC(CC(C4)C2)C3)cc1 (stereo not drawn) |  | > 100 µM
C#CC[C@]12CC(=O)CC[C@H]1CC1(C2)OCCO1 |  | > 100 µM
